Test results reported in the supplement of paper PMC3334620.
The full ranking holds about 33,000 sequences; the median of “E-score (-0.5 to 0.5)” is about -0.01, and the highest 2% start at about 0.26. The list shows a part of the results.

What follows are sequences tested against Ste12 (UniProt P13574) (assay: PBM E-score (8-mer binding enrichment) (E-score (-0.5 to 0.5)); higher = stronger / more preferred TF binding; most listed sequences are background and not binding sites). Settings: protein concentration: 200 nM; construct: GST-DNA-binding domain.
How it was run: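 Detection of bound protein used fluorescent anti-GST, with scans normalised by masliner. The proteins were GST-tagged yeast transcription factors applied at about 100-200 nM to universal all-10-mer Agilent arrays made double-stranded by primer extension. Each ungapped eight-base word, pooled with its reverse complement, was scored with an E-score from the Universal PBM Analysis Suite.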

Going from CTGTTTCA to ATGGGAGA, the “PBM E-score” value falls from 0.484 to -0.122.

Going from GTGCCAAC to AGATCCAT, the “PBM E-score” value falls from 0.0106 to -0.0971.

Going from CAGAGCGC to AAAATCGT, the “PBM E-score” value rises from -0.15 to 0.122.

First: AGCTTTGG
Second: AAACAGAT
The “PBM E-score” value of the first is lower: -0.0819 for the first, 0.246 for the second.

Going from ACGTAATG to GTTCGACA, the “PBM E-score” value rises from -0.0443 to 0.0212.

Going from CAATATCC to CCGGCTCC, the “PBM E-score” value falls from 0.141 to -0.0246.

Going from AGGGCCAC to AGTGCGGA, the “PBM E-score” value rises from -0.202 to 0.0511.

First: CTGTCTCA
Second: GCGAAGCC
The “PBM E-score” value of the first is higher: 0.158 for the first, -0.321 for the second.

First: CCGAAAAG
Second: AGGGTCCC
The “PBM E-score” value of the first is higher: 0.235 for the first, -0.149 for the second.

Going from ATCCCTGA to CGCTCATC, the “PBM E-score” value rises from -0.0412 to -0.0341.

Going from GCGGAAGA to GCACGCTA, the “PBM E-score” value falls from 0.0165 to -0.021.

Compared with CTTGGTCA, AGCAGCTC is lower in “PBM E-score” value: 0.0699 for the first, -0.242 for the second.

Compared with ATGGGTCC, AGGGCTAC is lower in “PBM E-score” value: -0.0701 for the first, -0.121 for the second.

Going from AGCGGGAG to ATATCCCC, the “PBM E-score” value rises from -0.133 to 0.174.

First: GGGTCACC
Second: CAGATCGC
The “PBM E-score” value of the first is lower: -0.13 for the first, 0.0918 for the second.

First: GGATTTCA
Second: ATTTTAGC
The “PBM E-score” value of the first is higher: 0.158 for the first, 0.0142 for the second.

Going from AGGTCAGG to ATCTGGAC, the “PBM E-score” value falls from -0.104 to -0.172.

First: TGTTTAAA
Second: GCGGCCCC
The “PBM E-score” value of the first is higher: 0.26 for the first, -0.0464 for the second.

Compared with TATGGGCA, CGCGTGTC is lower in “PBM E-score” value: -0.0261 for the first, -0.0421 for the second.

Compared with GAACAAGC, ATCATTAG is higher in “PBM E-score” value: -0.141 for the first, 0.0954 for the second.

Compared with GAAAAGCC, ATCATACA is higher in “PBM E-score” value: -0.0418 for the first, 0.142 for the second.

Going from ACCTGGTA to ACAGCTAA, the “PBM E-score” value falls from -0.0624 to -0.111.

First: ATTAGGTG
Second: ACGCGAAA
The “PBM E-score” value of the first is lower: 0.0184 for the first, 0.0663 for the second.

Compared with CTCGATCA, GACTCACA is lower in “PBM E-score” value: 0.114 for the first, -0.201 for the second.

First: CTGAACAG
Second: AGTTGATA
The “PBM E-score” value of the first is lower: -0.135 for the first, 0.0162 for the second.

Compared with AGTCACTC, CCCGCTGC is lower in “PBM E-score” value: -0.0694 for the first, -0.167 for the second.

Compared with CGCGCTGC, CTGGAACA is higher in “PBM E-score” value: -0.0222 for the first, 0.162 for the second.

First: GCGCTGCA
Second: GTCCCGCA
The “PBM E-score” value of the first is higher: 0.03 for the first, -0.123 for the second.

Going from CAGATAAG to ACAGGGCA, the “PBM E-score” value falls from 0.128 to -0.0612.

First: GTCTTATA
Second: GGTATTCA
The “PBM E-score” value of the first is lower: 0.0618 for the first, 0.0784 for the second.

First: CACCTGTC
Second: AGCACTCC
The “PBM E-score” value of the first is higher: 0.0774 for the first, -0.00087 for the second.

Going from GCCGGCTA to CGGTCACG, the “PBM E-score” value falls from 0.00039 to -0.0528.

First: AGCAAACC
Second: ACGGTCCC
The “PBM E-score” value of the first is higher: 0.194 for the first, -0.172 for the second.

Compared with ATGGGATC, CCCCACCA is higher in “PBM E-score” value: -0.0396 for the first, 0.102 for the second.

Compared with GACGCTAA, GCACTGCA is higher in “PBM E-score” value: -0.296 for the first, -0.0478 for the second.

Compared with AGAGTCGA, CTGACGAA is higher in “PBM E-score” value: -0.0226 for the first, 0.107 for the second.

Compared with AAAACTGT, AAACTTAC is lower in “PBM E-score” value: 0.222 for the first, 0.0965 for the second.

Compared with AGCTAAAC, CGTCCTCC is lower in “PBM E-score” value: -0.0259 for the first, -0.0384 for the second.

Going from CGTTATGA to ATCTAGTC, the “PBM E-score” value falls from 0.00143 to -0.0479.

Going from AGATAGCT to CCGAGGAG, the “PBM E-score” value rises from -0.166 to -0.0113.

Compared with CGGAGTAG, GACAATTA is higher in “PBM E-score” value: -0.0132 for the first, 0.208 for the second.

Compared with ACGAGGCG, ATACTCGG is higher in “PBM E-score” value: -0.0917 for the first, -0.0182 for the second.

Compared with AAGAATAC, AGTTGAAC is lower in “PBM E-score” value: 0.0746 for the first, -0.0885 for the second.

Going from AGTGTTTC to TGCTCACA, the “PBM E-score” value falls from 0.332 to -0.148.

First: AAGGCCCC
Second: TGGATGAA
The “PBM E-score” value of the first is lower: -0.238 for the first, -0.0304 for the second.

Going from CGCCCCCG to ACTTACGC, the “PBM E-score” value falls from 0.0361 to -0.0921.

First: GACTCTGA
Second: GTCGGGGA
The “PBM E-score” value of the first is lower: 0.0577 for the first, 0.113 for the second.

Compared with ATTCGAAC, GCGCACGC is lower in “PBM E-score” value: 0.105 for the first, -0.064 for the second.

Compared with GCAGGCGC, CTGGCTAA is lower in “PBM E-score” value: -0.0349 for the first, -0.0552 for the second.

Going from CAATGGTA to AGGGAGCC, the “PBM E-score” value falls from 0.126 to -0.343.

Going from ACAATCAC to AGTGTAAC, the “PBM E-score” value rises from -0.0305 to 0.119.

Going from GCCACACA to CACGCACA, the “PBM E-score” value falls from 0.0243 to -0.0166.

Going from GAAGAATA to CGGGGACG, the “PBM E-score” value rises from -0.0221 to 0.0284.

Compared with ACTGTGTC, ACGAACAA is lower in “PBM E-score” value: 0.0573 for the first, 0.0394 for the second.

First: AATTAGGG
Second: AGGGACAA
The “PBM E-score” value of the first is lower: -0.0993 for the first, 0.0314 for the second.

First: GTAAAGGA
Second: CACTTGAG
The “PBM E-score” value of the first is higher: 0.142 for the first, -0.0428 for the second.

First: ACCCCCTA
Second: CTACTGGA
The “PBM E-score” value of the first is lower: -0.286 for the first, -0.0948 for the second.

Compared with TCCGTGAA, ACGATCGC is higher in “PBM E-score” value: 0.00225 for the first, 0.109 for the second.

Compared with AGCGAACA, ATGTCAGA is higher in “PBM E-score” value: -0.0877 for the first, 0.0454 for the second.

Compared with AGATATCC, AAATGATT is higher in “PBM E-score” value: 0.0826 for the first, 0.197 for the second.

First: GTACGAAC
Second: GCAGAACA
The “PBM E-score” value of the first is higher: 0.0543 for the first, 0.0362 for the second.

Compared with AGGTCTCG, GTTTCGAA is higher in “PBM E-score” value: -0.0875 for the first, 0.325 for the second.

Compared with AGCCCCCA, TCCTTGCA is lower in “PBM E-score” value: -0.118 for the first, -0.134 for the second.

Compared with GCCGGGCC, ACGAATAA is higher in “PBM E-score” value: -0.107 for the first, 0.101 for the second.

Going from GGGCCTTA to GACCAGAA, the “PBM E-score” value rises from -0.205 to 0.0766.

First: GCGAGGCC
Second: ACCAACCG
The “PBM E-score” value of the first is higher: -0.131 for the first, -0.181 for the second.

Going from ATAACGTA to ATGCTGTG, the “PBM E-score” value falls from 0.15 to -0.162.

Compared with ATGTTTGA, TCCTGGCA is lower in “PBM E-score” value: 0.337 for the first, -0.0322 for the second.

Compared with CGCCGGGA, GCGCTCCC is lower in “PBM E-score” value: -0.123 for the first, -0.155 for the second.

Compared with CATGTATA, CACGAACA is lower in “PBM E-score” value: 0.0255 for the first, 0.0211 for the second.

Compared with CAATAAAG, ACGCGCAT is lower in “PBM E-score” value: 0.238 for the first, -0.095 for the second.

Compared with CCCCTGGA, GCGAATCA is higher in “PBM E-score” value: -0.225 for the first, 0.165 for the second.

Compared with GCTTAGAC, CCAAGGCC is lower in “PBM E-score” value: -0.0701 for the first, -0.177 for the second.

Compared with ATGAGTGG, TAAGAGCA is higher in “PBM E-score” value: -0.0925 for the first, -0.0275 for the second.

First: CACCATGC
Second: GAGTTTTA
The “PBM E-score” value of the first is lower: -0.187 for the first, 0.218 for the second.

Going from AGCACAAA to CAAGACGG, the “PBM E-score” value falls from 0.133 to -0.0947.

Going from ACCGAATA to GTCCCGGA, the “PBM E-score” value falls from 0.0212 to 0.0192.

Going from ACCATCGT to CAGATGGG, the “PBM E-score” value rises from -0.188 to -0.123.

Going from CCTGGTAA to CCTAGTAG, the “PBM E-score” value rises from -0.0794 to -0.0312.

First: ATTGATAA
Second: CCCGACGA
The “PBM E-score” value of the first is lower: 0.0752 for the first, 0.284 for the second.

Compared with CGGCGTTC, GCATGAAC is higher in “PBM E-score” value: -0.151 for the first, -0.0143 for the second.

Compared with GCGGAATA, TTTTAAAA is higher in “PBM E-score” value: 0.197 for the first, 0.329 for the second.

Going from AGGGGAGA to AGTGTACA, the “PBM E-score” value rises from -0.0864 to -0.00592.

First: CGTAGCAA
Second: GAGGCTTA
The “PBM E-score” value of the first is higher: 0.00941 for the first, -0.185 for the second.

First: CGCAGTCC
Second: CTTCCAAC
The “PBM E-score” value of the first is lower: -0.131 for the first, 0.0668 for the second.

First: GTGGCTTA
Second: CGGTAGGC
The “PBM E-score” value of the first is higher: -0.0687 for the first, -0.175 for the second.
